Holding throughout (assay): Primary Screen for Target Class Profiling of Small Molecule Inhibitors of Methyltransferases
Assay [1] addresses Glycine N-methyltransferase (Homo sapiens) (UniProt Q14749). The note with it: purified enzyme, MTase-Glo SAH luminescence; measured here: GNMT inhibition; at 40 µM; stronger effect = lower value. The procedure, abridged: (§1)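 Each enzyme was reacted with SAM and its substrate, with compounds tested once at 40 uM; SAH formed was read by MTase-Glo luminescence.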
Assay [2] addresses Guanidinoacetate N-methyltransferase (Homo sapiens) (UniProt Q14353). Particulars: purified enzyme, MTase-Glo SAH luminescence; measured here: GAMT inhibition; at 40 µM; stronger effect = lower value. In a few lines:
as §1

Assay [3] concerns the target Histamine N-methyltransferase (Homo sapiens) (UniProt P50135). The note with it: purified enzyme, MTase-Glo SAH luminescence; measured here: HNMT inhibition; at 40 µM; stronger effect = lower value. The procedure, abridged: as §1
Assay [4] deals with Nicotinamide N-methyltransferase (Homo sapiens) (UniProt P40261). The note with it: purified enzyme, MTase-Glo SAH luminescence; measured here: NNMT inhibition; at 40 µM; stronger effect = lower value. In a few lines:
as §1

The target of assay [5] is Phenylethanolamine N-methyltransferase (Homo sapiens) (UniProt P11086). The note with it: purified enzyme, MTase-Glo SAH luminescence; measured here: PNMT inhibition; at 40 µM; stronger effect = lower value. The procedure, abridged:
as §1

The list shows a part of the results. Shown are side measurements of this screen, not its main read-out; they come without a call.
% is set by controls: 0 for no effect and ±100 for the full control effect.

`CC(C)n1c(=O)c2ccc(C(=O)NC3CCCC3)cc2n2c(=O)n(CC(=O)NC3CCCC3)nc12`: the activity change, negative = inhibition is 5.05% in assay [1]; 0% in assay [2]; 3.96% in assay [3]; 4.51% in assay [4]; -0.576% in assay [5].
For `CC(C)c1ccc(-c2cc3n(n2)CC(C)(C(=O)NC2CCCCC2)N(Cc2cccs2)C3=O)cc1` (stereo not drawn) the same measures were -3.33%, 0%, 2.55%, 3.25% and -4.55%.
The corresponding values for `CCc1ccc(NC(=O)Cn2nc3n(C(C)C)c(=O)c4ccc(C(=O)NCC(C)C)cc4n3c2=O)cc1` are 6.27%, 0.219%, 10.6%, -1.76% and 5.88%.
For `C=C(C)C(=O)OC1CC2(C)OC(=CC2=O)C(=C)CC2OC(=O)C(=C)C12` (stereo not drawn), the activity change, negative = inhibition in assay [1] was -0.074%; in assay [2], -5.07%; in assay [3] it was 0.905%; in assay [4], -13.5%; in assay [5] it was 3.96%.
The corresponding values for `Cc1ccc(CNC(=O)c2ncn3c2C(=O)N(C2CC2)C(C)(C(=O)NCc2ccc(F)cc2)C3)cc1` (stereo not drawn) are -2.97%, 4.8%, 1.01%, -0.249% and -2.27%.
Turning to `CCCn1c(=O)c2ccccc2n2c(=O)n(CC(=O)NCc3ccc(OC)cc3)nc12`, the activity change, negative = inhibition was -5.05% in assay [1]; 3.09% in assay [2]; 2.19% in assay [3]; -2.48% in assay [4]; -1.62% in assay [5].
For `CC(C)Cn1c(=O)c2ccccc2n2c(=O)n(CC(=O)NC3CCCCC3)nc12` the same measures were -1.75%, 3.17%, 0.77%, -3.77% and -4.89%.
For `CC(C)CCn1c(=O)c2ccccc2n2c(=O)n(Cc3ccccc3)nc12` the same measures were -3.67%, 3.19%, 3.21%, -12% and -3.07%.
Take `NC(N)=NC(N)=Nc1cccc(Cl)c1`: the activity change, negative = inhibition in assay [1] was 6.29%; in assay [2], 9.51%; in assay [3], -12.5%; in assay [4] it was -5.11%; in assay [5], -1.3%.
For `CCOc1ccc(CCN2C(=O)c3cc4ccccc4n3CC2(C)C(=O)NCCC(C)C)cc1` (stereo not drawn), the activity change, negative = inhibition was 2.83% in assay [1]; 4.62% in assay [2]; 0.167% in assay [3]; 1.37% in assay [4]; -4.77% in assay [5].
The corresponding values for `CCOC(=O)c1cc2n(n1)CC(C)(C(=O)NC1CCCC1)N(c1ccc(C)c(F)c1)C2=O` (stereo not drawn) are -1.35%, 2.66%, -2.14%, 3.07% and -4%.
For `CCOc1ccc(N2C(=O)c3cc4occc4n3CC2(C)C(=O)NC2CCCC(C)C2C)cc1` (stereo not drawn) the same measures were -6.59%, 3.49%, -3.63%, -0.379% and -6.54%.
With `CC1(C(=O)NC2CCCCCC2)Cn2c(nc3ccccc32)C(=O)N1CCCN1CCOCC1` (stereo not drawn), the activity change, negative = inhibition in assay [1] was determined as 3.39%; in assay [2], 3.4%; in assay [3] it was 5.6%; in assay [4] it was 3.99%; in assay [5], 1.97%.
The corresponding values for `Cc1c(C)c(NCC(=O)N(C)C2CCN(Cc3ccc(C(N)=O)cc3)CC2)c(C)c(C)c1N` are -9.52%, -2.82%, -15.9%, -17.8% and -7.45%.
The corresponding values for `CC(C)CCn1c(=O)c2ccc(C(=O)NC(C)C)cc2n2c(=O)n(CC(=O)Nc3cccc(F)c3)nc12` are 0.563%, 0.851%, 1%, -8.03% and -2.52%.
The corresponding values for `CC(C)CCNC(=O)C1(C)Cn2nc(C(=O)N3CCN(c4ccccc4F)CC3)cc2C(=O)N1C` (stereo not drawn) are 4.78%, 1.19%, 6.63%, 7.39% and 3.39%.
Take `O=C(COc1ccccc1)N1CCC2(CC1)OCCN(CCc1ccccc1)C2=O`: the activity change, negative = inhibition in assay [1] is -2.03%; in assay [2] it was -0.703%; in assay [3], -1.52%; in assay [4], -6.83%; in assay [5] it was -0.588%.
For the molecule `CSc1ccccc1N1CCN(CCCCCC(=O)NC2CCCc3ccccc32)CC1` (stereo not drawn), the activity change, negative = inhibition in assay [1] was -0.587%; in assay [2], 7.79%; in assay [3], -9.22%; in assay [4] it was -6.46%; in assay [5], 6.23%.
In the case of `COc1cc2ncnc(Nc3ccc(NC(=O)c4ccccc4)cc3)c2cc1OC`, the activity change, negative = inhibition in assay [2] was 23.1%; in assay [4] it was -9.68%; in assay [5], -0.916%.
For `COc1cccc(CNS(=O)(=O)c2ccc3c(c2)n(C)c(=O)n3C)c1`, the activity change, negative = inhibition in assay [1] was 8.31%; in assay [2] it was 0%; in assay [3] it was 2.64%; in assay [4] it was -2.37%; in assay [5], -0.24%.
The corresponding values for `CN(CC[C@H]1CN(C(=O)C(C)(C)C)CC[C@H]1CC(=O)O)c1ccccc1` are -9.26%, -0.704%, -1.13%, -1.71% and -4.81%.
The corresponding values for `C[C@]1(CO)[C@H]2Cc3sc(NC(=O)C4CCC4)nc3[C@@H](CC(=O)N3CCCCC3)[C@]2(C)CC[C@H]1O` are -2.83%, -3.32%, -2.67%, -10.4% and -1.07%.
As for `C[C@H]1O[C@@H](O[C@H]2[C@@H](O)C[C@H](O[C@H]3[C@@H](O)C[C@H](O[C@H]4CC[C@@]5(C)[C@H](CC[C@@H]6[C@@H]5C[C@@H](O)[C@]5(C)[C@@H](C7=CC(=O)OC7)CC[C@]65O)C4)O[C@@H]3C)O[C@@H]2C)C[C@H](O)[C@@H]1O`, the activity change, negative = inhibition in assay [1] is 3.67%; in assay [2], -10.1%; in assay [3] it was -2.34%; in assay [4], -17.2%; in assay [5], -12.3%.
The corresponding values for `C=C1CC[C@H]2[C@@H](/C=C(\C)C(=O)[C@@]3(OC(C)=O)C[C@H](C)[C@H](OC(C)=O)[C@@H]3[C@H]1OC(C)=O)C2(C)C` are 2.99%, 2.94%, 6.65%, -13.9% and -3.76%.
For `Cc1ccc(C)c(NC(=O)Cn2c(=O)oc3cc(S(=O)(=O)N4CCCCC4)ccc32)c1` the same measures were -3.39%, 4.5%, 0.515%, 5.77% and -2.21%.
For `C=C(C(=O)O[C@H]1C/C(C)=C/CC/C(CO)=C/[C@H]2OC(=O)C(=C)[C@H]12)C(O)CO` (stereo partly drawn) the same measures were -2.56%, 2.54%, 5.93%, -7.36% and 1.2%.
Turning to `COc1ccccc1CNC(=O)[C@@H]1OCCN(C2CC2)[C@H]1c1ccccc1`, the activity change, negative = inhibition is -3.41% in assay [1]; -3.33% in assay [2]; -4.21% in assay [3]; -4.48% in assay [4]; -3.29% in assay [5].
The corresponding values for `CCN1C(=O)c2cc(C(=O)NCCc3ccc(OC)c(OC)c3)nn2CC1(C)C(=O)NC1CCCC1` (stereo not drawn) are -6.79%, -0.61%, -4.4%, -10.2% and -6.01%.

The values are drawn from PubChem BioAssay AID1745853 (National Center for Advancing Translational Sciences (NCATS), 2022).
